Assay results from PMC4336329 (PLoS ONE, 2015).
About 2,200 (0.71%) of roughly 310,000 compounds showed an effect of 50% or more. The effect is printed as a negative number. The list shows a part of the results.

Biological target: human ether-à-go-go-related gene (hERG) potassium channel (human, UniProt Q12809)
Assay: primary screen, population patch clamp on CHO cells stably expressing hERG

Sequence of human ether-à-go-go-related gene (hERG) potassium channel (Q12809 whole entry, looked up): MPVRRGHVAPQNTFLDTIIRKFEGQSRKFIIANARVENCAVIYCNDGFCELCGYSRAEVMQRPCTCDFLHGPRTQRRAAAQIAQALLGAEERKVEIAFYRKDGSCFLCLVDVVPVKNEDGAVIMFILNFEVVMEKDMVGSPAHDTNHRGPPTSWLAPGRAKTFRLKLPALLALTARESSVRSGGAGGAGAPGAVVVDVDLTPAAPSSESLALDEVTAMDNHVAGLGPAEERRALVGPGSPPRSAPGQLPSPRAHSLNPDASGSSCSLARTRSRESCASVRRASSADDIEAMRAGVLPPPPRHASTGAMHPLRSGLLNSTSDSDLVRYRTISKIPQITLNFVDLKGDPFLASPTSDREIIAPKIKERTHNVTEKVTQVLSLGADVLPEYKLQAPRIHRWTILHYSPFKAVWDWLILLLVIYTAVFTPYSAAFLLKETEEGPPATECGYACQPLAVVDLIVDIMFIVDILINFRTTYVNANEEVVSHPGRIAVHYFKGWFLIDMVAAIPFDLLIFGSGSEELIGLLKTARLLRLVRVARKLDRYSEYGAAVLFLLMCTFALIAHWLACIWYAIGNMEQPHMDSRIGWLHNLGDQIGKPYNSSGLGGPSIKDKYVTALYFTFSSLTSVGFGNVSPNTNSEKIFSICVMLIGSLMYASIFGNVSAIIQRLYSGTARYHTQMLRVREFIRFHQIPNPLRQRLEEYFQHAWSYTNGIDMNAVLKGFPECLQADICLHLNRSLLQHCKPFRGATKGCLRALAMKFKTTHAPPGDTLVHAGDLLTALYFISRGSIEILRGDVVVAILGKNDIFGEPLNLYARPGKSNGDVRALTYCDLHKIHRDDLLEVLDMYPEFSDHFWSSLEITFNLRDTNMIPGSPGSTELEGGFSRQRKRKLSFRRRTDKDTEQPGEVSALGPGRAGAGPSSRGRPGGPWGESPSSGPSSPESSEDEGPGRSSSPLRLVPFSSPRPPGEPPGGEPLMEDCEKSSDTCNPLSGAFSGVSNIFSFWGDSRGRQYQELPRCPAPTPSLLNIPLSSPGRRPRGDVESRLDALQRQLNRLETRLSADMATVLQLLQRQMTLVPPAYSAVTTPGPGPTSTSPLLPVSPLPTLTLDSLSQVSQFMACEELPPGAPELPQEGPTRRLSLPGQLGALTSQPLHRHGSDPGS

Row | Compound | hERG current change (%, negative = inhibition) at 1uM
1 | O=C(/C=C/c1cccc([N+](=O)[O-])c1)N1CCN(C(=O)c2ccco2)CC1 | -53.4%
2 | CN1CC(c2ccccc2Cl)C2(COc3ccccc3C2=O)C12C(=O)Nc1ccccc12 (stereo not shown) | 3.76%
3 | COCCCN1CC23C=CC(O2)C(C(=O)OC)C3C1=O (stereo not shown) | 0.0703%
4 | CCOc1ccc(N(CC(=O)NCc2ccccc2)S(=O)(=O)c2ccc(C)cc2)cc1 | 6.54%
5 | Cc1nc(CCNC(=O)CC2C(=O)NCCN2CC(C)C)nc2c1CCC2 (stereo not shown) | 14.9%
6 | COc1cc(C2NC(=O)NC(C)=C2C(C)=O)ccc1O (stereo not shown) | 12.5%
7 | CCc1ccc(-c2cc(C(=O)NCCCn3ccnc3)c3ccccc3n2)s1 | -28.3%
8 | Cc1cccc(NS(=O)(=O)c2ccc(C)c(C(N)=O)c2)c1 | 13.6%
9 | CC1CCCCN1C(=O)C1CCN(c2nc(-c3ccccc3)nc3c2CCC3)CC1 (stereo not shown) | -10.5%
10 | Cn1c(C(C(=O)NCC2CCCO2)N(C(=O)Cn2nnc3ccccc32)C2CCCCC2)nc2ccccc21 (stereo not shown) | 16.2%
11 | Cc1ccc(CC(SCc2ccccc2)C(=O)O)cc1C (stereo not shown) | 7.94%
12 | Cc1ccc(NC(=O)c2ccc(CNc3c(N4CCC(C)CC4)c(=O)c3=O)cc2)cc1 | 11.8%
13 | CCN(CC(=O)Nc1cc(Cl)ccc1C)C(=O)CN1C(=O)NC2(CCCC2)C1=O | 10.2%
14 | CN(C)C(=O)CN1CCN(C(=O)CCl)CC1.Cl | 2.52%
15 | CCC(=O)NNc1nc2c(C)c(C)ccc2s1 | 6.2%
16 | CCOC(=O)c1cc(-c2ccc(Cl)cc2)nc2onc(C)c12 | 9.14%
17 | Cc1ccc(S(=O)(=O)N2CCN(C(=O)CSc3ccc(F)cc3)CC2)cc1 | 15.1%
18 | c1ccc(CCSc2ncnc3nc[nH]c23)cc1 | 8.8%
19 | CCN(C#N)c1nc(NC(C)C)nc(NC(C)C)n1 | 10.2%
20 | CC#CCN1c2ccccc2[C@]23C[C@@H](C(=O)OC)N(C(=O)c4ccco4)C2=NC(C(=O)OC)=C(C(=O)OC)[C@H]13 | 10.4%
21 | O=C(NCC1CCCO1)c1c(O)nc2sccn2c1=O (stereo not shown) | 9.42%
22 | O=C(N[C@@H](Cc1c[nH]c2ccccc12)C(=O)O)C1CCN(S(=O)(=O)c2ccc(Cl)cc2)CC1 | 15.8%
23 | O=C(N/N=C/C=C/c1ccc2c(c1)OCO2)c1ccc([N+](=O)[O-])cc1 | -0.0157%
24 | O=C(c1ccc2c(c1)OCO2)C1CCCN(Cc2ccc(F)c(F)c2)C1 (stereo not shown) | 5.03%
25 | COc1ccc(NC(=S)N2CCN(S(=O)(=O)c3ccc(F)cc3)CC2)cc1 | 9.07%
26 | O=S(=O)(Nc1cc(Cl)ccc1N1CCCCC1)c1cccs1 | 11.6%
27 | Cc1ccc(NC(=O)c2ccco2)c(NC(=O)c2ccc(Cl)cc2)c1 | 9.21%
28 | O=C(CCl)Nc1cccc(S(=O)(=O)N2CCCCCC2)c1 | 4.52%

Row | Compound | hERG current change (%, negative = inhibition) at 1uM
29 | CCN(CC)S(=O)(=O)c1cc(C)c(C)cc1OCC(=O)NC1CCCC1 | 9.67%
30 | Brc1ccc(C2=CC(c3ccco3)n3nnnc3N2)cc1 (stereo not shown) | 10.1%
31 | Cc1ccccc1Nc1nc(N)nc(COC(=O)c2ccc([N+](=O)[O-])o2)n1 | 8.44%
32 | COc1ccc(NC(=O)CSc2nnc3c4c(nc(-c5ccccc5)n23)CC(C)(C)OC4)cc1 | -4.87%
33 | O=S(=O)(N1CCOCC1)N1CCOCC1 | 22.6%
34 | CN1CCN(C(=O)c2cc(-c3ccco3)on2)CC1 | 19.6%
35 | O=C(CSc1nc2ccccc2c(=O)n1NC(=O)Cc1ccccc1)NCc1ccccc1 | 16.1%
36 | CC1(C)Cc2cccc(OCC(=O)N3CCN(c4ccc([N+](=O)[O-])cc4)CC3)c2O1 | -51.8%
37 | CCC(=O)Nc1nc(CC(=O)Nc2ccccc2)cs1 | 13.1%
38 | Cc1ccc(-c2nc3ncccc3o2)cc1NC(=O)c1cc2ccccc2o1 | 3.23%
39 | CCn1cc(C(=O)NCCCN2CCCC2)c(=O)c2cc(S(=O)(=O)N3CCc4ccccc4C3)ccc21 | 6.45%
40 | Cc1ccc(C(=O)OCC(=O)NCc2cccs2)c(C)c1 | 16.4%
41 | CCCCn1c(=O)n(C)c(=O)c2c3c(sc21)COC(C)(C)C3 | 2.92%
42 | O=C(N/N=C\c1cn(-c2ccccc2)nc1-c1ccccc1)c1ccc(Br)o1 | 7.05%
43 | Cc1ccc(S(=O)(=O)CCC(=O)N(Cc2nnc(-c3ccc(Cl)cc3)o2)C2CC2)cc1 | 4.52%
44 | COc1ccc(NC(=O)C(NC(=O)c2ccc(=O)[nH]c2)c2ccc(OC)cc2)cc1 (stereo not shown) | 5.55%
45 | COc1cc(C(CC(=O)Nc2ccc(C)cn2)N2Cc3ccccc3C2=O)cc(OC)c1OC (stereo not shown) | 9.69%
46 | O=C(Nc1ccc(Cl)cc1)N1CCOC12CCCCC2 | 2.35%
47 | O=C(N/N=C\C=C\c1ccc2c(c1)OCO2)C1COc2ccccc2O1 (stereo not shown) | -7.86%
48 | CC(=C/c1ccccc1)/C=N/Nc1nc(N2CCCCC2)nc(N2CCCCC2)n1 | 1.93%
49 | O=C(c1ccc(Cl)cc1Cl)N1CCC(C(=O)N2CCOCC2)CC1 | 8.73%
50 | CC(C)(C)C1CCc2c(sc(NC(=O)CSc3nnc(-c4ccccc4)o3)c2C#N)C1 (stereo not shown) | 9.05%
51 | C=CCn1c(CCNC(=O)c2ccccc2F)nnc1SCC(=O)Nc1nc(C)cs1 | 4.14%
52 | COC(=O)C1CC(=O)N(CCc2c[nH]c3ccccc23)C1 (stereo not shown) | 2.43%
53 | C=CCC(=O)NC1CC(C)(C)Cc2c1cnn2-c1ccccc1C (stereo not shown) | 9.27%
54 | Cc1ccccc1SCC(=O)Nc1cccc(C#N)c1 | 17.9%
55 | Cc1ccc(S(=O)(=O)NCC(=O)NCC(=O)NC(C)c2ccccc2Br)cc1C (stereo not shown) | 7.99%
